Eleven molecules from the supplement of paper PMC12355420 can be followed below.

Each structure is given as a SMILES string. Structures can show the parent of a compound that is named as a salt. The list shows a part of the results. No stated cut-off is given here; in the data, active = 0.5 or less and inactive = the rest. Most values come without repeats; read them as rough.
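Further: HA-SDC1 level read out by In-Cell Western staining with an anti-HA antibody against the N-terminal tag, screening FDA-approved library drugs.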

The subject of this assay is HeLa VPS33A R498W KI + HA-SDC1-FLAG. Kind of assay: relative GAG core protein HA-SDC1 amount per cell number vs DMSO (fraction of DMSO); HeLa model of a glycosaminoglycan (GAG) storage disease; KI is knock-in and KO knock-out; SDC1 is syndecan 1; higher = more SDC1 (GAG core protein). The following applies: 50 µM; 24 h.
As for `O=C1CN(/N=C/c2ccc(-c3ccc([N+](=O)[O-])cc3)o2)C(=O)N1` [Dantrolene, sodium salt], the “relative GAG core protein HA-SDC1 amount per cell number” value is inactive: 0.822.
In the case of `CC(C)NCC(O)c1ccc(NS(C)(=O)=O)cc1` (stereo unspecified) [Sotalol], the “relative GAG core protein HA-SDC1 amount per cell number” value was inactive: 0.956.
`COc1ccc2c(c1)c(CC(=O)O)c(C)n2C(=O)c1ccc(Cl)cc1` [Indomethacin]: the “relative GAG core protein HA-SDC1 amount per cell number” value is inactive: 1.15.
On to `CC(C)NC[C@H](O)COc1ccc(CCOCC2CC2)cc1` [Levobetaxolol HCl], for which the “relative GAG core protein HA-SDC1 amount per cell number” value is inactive: 1.09.
Take `Cc1ccc(S(=O)(=O)NC(=O)NN2CCCCCC2)cc1` [Tolazamide]: the “relative GAG core protein HA-SDC1 amount per cell number” value is inactive: 0.769.
The result for `CC(=O)Oc1ccc(C(c2ccc(OC(C)=O)cc2)c2ccccn2)cc1` [Bisacodyl] reads inactive: 0.906; that for `Nc1ccc(S(=O)(=O)Nc2ccccn2)cc1` [Sulfapyridine], inactive: 0.734; that for `CC1(C)S[C@@H]2[C@H](NC(=O)[C@H](NC(=O)N3CCNC3=O)c3ccccc3)C(=O)N2[C@H]1C(=O)O` [Azlocillin sodium salt], inactive: 0.971.
With `C#Cc1cccc(Nc2ncnc3cc(OCCOC)c(OCCOC)cc23)c1` [Erlotinib Hydrochloride], the “relative GAG core protein HA-SDC1 amount per cell number” value is inactive: 1.24.
In the case of `FC(F)(F)c1ccc(/C=C/c2nc(COc3ccc(CCCCn4ccnn4)cc3)co2)cc1` [Mubritinib (TAK 165)] it was inactive: 1.15; in that of `CC1(C)[C@@H](OC(=O)CCC(=O)O)CC[C@]2(C)[C@H]3C(=O)C=C4[C@@H]5C[C@@](C)(C(=O)O)CC[C@]5(C)CC[C@@]4(C)[C@]3(C)CC[C@@H]12` [Carbenoxolone disodium], active: 0.41.
